{"source": "PubChem BioAssay AID588855", "about": "(National Center for Advancing Translational Sciences (NCATS), 2011)", "note": "Where “and” joins values, the source holds several entries; their conditions need not be identical. Identical values can stand only once. In all, about 410,000 compounds went through this assay and about 5,000 (1.2%) were called active. The inconclusive results got no clear call from the source; some entries with a clear call stand among them for comparison. Calls follow the shape of the dose curve; as a rule, active = well fitted inhibition curve with a large enough effect; inconclusive = small, poorly fitted or top-dose-only effect; inactive = no such curve, though single readings can be large or run the other way. Potencies of inconclusive entries are doubtful fits and often do not repeat.", "data": [{"assay": "qHTS for Inhibitors of TGF-b; also: nearly all actives have a fitted effect of over 65% in size; also: potency is read from the fitted curve at half-maximal effect; tags tell the direction and shape of the fitted curve; as to activity, negative = inhibition: % is scaled to controls: 0 for no effect and ±100 for the full control effect", "conditions": "HepG2 CAGA-GFP TGF-b/SMAD3 reporter, GFP fluorescence, 18 h, TGF-beta stimulated, 500 pg/mL final; series mostly up to 46.1 µM; activity, negative = inhibition: at the top concentration", "method_in_brief": "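Using HEPG2 CAGA-GFP reporter cells at 1000 cells/well, we pinned test compounds, stimulated with recombinant TGF-beta (500 pg/mL final) and measured total well GFP after 18 h.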", "values": [{"compound": "CCCCCCC(=O)N(O)C1CC(=O)N(c2ccc(Br)cc2)C1=O", "note": "(stereo not given)", "Potency": "inconclusive: 35.5 µM [inhibitor, single point]"}, {"compound": "O=C(NCc1ccccn1)c1cc(S(=O)(=O)N2CCN(c3ccccc3)CC2)ccc1Cl", "Potency": "inconclusive: 35.5 µM [inhibitor, single point]"}, {"compound": "COc1ccc(NC(=O)Nc2ccccc2)cc1S(=O)(=O)N1CCCCC1", "Potency": "inconclusive: 11.2 µM [inhibitor, single point]"}, {"compound": "Cc1sc(NC(=O)C2CCCCC2C(=O)O)c(C(N)=O)c1-c1ccc(C(C)C)cc1", "note": "(stereo not given)", "Potency": "inconclusive: 35.5 µM [inhibitor, single point]"}, {"compound": "Cc1ccc(/C=N/n2c(-c3cccs3)n[nH]c2=S)cc1", "activity, negative = inhibition": "inactive: 2.12%"}, {"compound": "CCOc1cc(CNC(=O)CCCn2c(=O)c3cccn3c3cccnc32)cc(OCC)c1OCC", "Potency": "inconclusive: 35.5 µM [inhibitor, single point]"}, {"compound": "Cc1nc(-c2ccccc2)sc1C1(C)CC(c2cccc(F)c2)=NO1", "note": "(stereo not given)", "Potency": "inconclusive: 1.12 µM [inhibitor, full curve, poor fit]"}, {"compound": "Cc1cccc(N2CCN(C(=O)CCC(=O)N3Cc4ccccc4Oc4ncccc43)CC2)c1C", "Potency": "inconclusive: 35.5 µM [inhibitor, single point]"}, {"compound": "O=C1/C(=C\\c2ccco2)SC(=S)N1C1CCS(=O)(=O)C1", "note": "(stereo not given)", "Potency": "inconclusive: 15.8 µM [inhibitor, single point]"}, {"compound": "Clc1cccc(-c2nc3ccc(Br)cn3c2Cc2ccsc2)c1", "Potency": "inconclusive: 12.6 µM [inhibitor, partial curve]"}, {"compound": "COc1ccc(C(=O)N2CCc3c([nH]c4ccccc34)C2C(F)(F)F)cc1", "note": "(stereo not given)", "Potency": "inconclusive: 14.1 µM [inhibitor, partial curve]"}, {"compound": "COc1ccc(CCNC(=O)c2cc(Nc3cc(C)cc(C)c3)nc3ccccc23)cc1OC", "Potency": "inconclusive: 7.08 µM [inhibitor, partial curve]"}, {"compound": "N#CC1=C(N)Oc2cc(O)ccc2C1c1cccs1", "note": "(stereo not given)", "activity, negative = inhibition": "inactive: 9.2%"}, {"compound": "CCc1ccccc1NC(=O)CSc1ncc(S(=O)(=O)c2ccccc2)c(N)n1", "activity, negative = inhibition": "inactive: -12.5%"}, {"compound": "CCn1cc(C(=O)N2CCN(c3ccc(F)cc3)CC2)c(=O)c2cc(S(=O)(=O)N3CCOCC3)ccc21", "Potency": "inconclusive: 35.5 µM [inhibitor, single point]"}, {"compound": "Cc1ccc(N/N=C(\\C#N)C(=O)c2ccsc2)cc1", "Potency": "inconclusive: 35.5 µM [inhibitor, single point]"}, {"compound": "O=C(/C=C/Nc1ccc(F)c(F)c1)c1cccs1", "Potency": "inconclusive: 6.31 µM [inhibitor, partial curve, poor fit]"}, {"compound": "CN(Cc1ccccc1)C(=O)c1[nH]cnc1C(=O)N[C@@H](Cc1ccccc1)C(=O)OC(C)(C)C", "Potency": "inconclusive: 1.41 µM [inhibitor, partial curve, poor fit]"}, {"compound": "Cc1oc(-c2ccc(Cl)cc2)nc1Cn1c(=O)cc(C)c2c(C)nn(-c3cccc(F)c3)c21", "activity, negative = inhibition": "inactive: 9.02%"}, {"compound": "CNC(=O)c1cc(S(=O)(=O)Nc2ccc3c(c2)OCO3)ccc1C", "Potency": "inconclusive: 5.62 µM [inhibitor, single point]"}, {"compound": "CCOC(=O)c1ccc(NC(=O)CSc2nc(=O)n(CCN3CCOCC3)c3c2CCC3)cc1", "Potency": "inconclusive: 15.8 µM [inhibitor, single point]"}, {"compound": "COC(=O)CSc1nc(N2CCOCC2)c2c(c1C#N)CC(C)(C)OC2", "activity, negative = inhibition": "inactive: 0%"}, {"compound": "COc1c(C)cc(C(=O)C2CCCN(Cc3cnc(N4CCOCC4)s3)C2)cc1C", "note": "(stereo not given)", "Potency": "inconclusive: 22.4 µM [inhibitor, single point]"}, {"compound": "CC1(C)COC(/C=C/c2ccc([N+](=O)[O-])cc2)=N1", "Potency": "inconclusive: 35.5 µM [inhibitor, single point]"}, {"compound": "Cc1ccc(N(CC(=O)NC(C)(C)C)C(=O)CS(=O)CC(=O)Nc2ccc3c(c2)OCO3)cc1", "note": "(stereo not given)", "Potency": "inconclusive: 35.5 µM [inhibitor, single point]"}, {"compound": "CC1CC(C)CN(C(=O)Cn2ncc3c([nH]c4ccccc43)c2=O)C1", "note": "(stereo not given)", "Potency": "inconclusive: 11.2 µM [inhibitor, single point]"}, {"compound": "COc1ccccc1N1C(=O)c2ccc(C(=O)Nc3ccc(C(=O)O)cc3)cc2C1=O", "activity, negative = inhibition": "inactive: 3.95%"}, {"compound": "C=CCCN(Cc1ccccc1)S(=O)(=O)c1cc(Br)ccc1Br", "Potency": "inconclusive: 6.31 µM [inhibitor, partial curve] and inconclusive: 31.6 µM [inhibitor, single point]"}, {"compound": "Cc1cc(C)c(S(=O)(=O)N2C[C@H]3CON(C)[C@H]3C[C@H]2c2ccc(N3CCCCC3)cc2)c(C)c1", "Potency": "inconclusive: 35.5 µM [inhibitor, single point]"}, {"compound": "COc1cc(S(=O)(=O)N2CCOCC2)ccc1NC(=O)CN1c2cccc3cccc(c23)S1(=O)=O", "activity, negative = inhibition": "inactive: 33.9%"}, {"compound": "CC(C)(C)NC(=O)/C(=C/c1ccccc1F)NC(=O)c1ccc([N+](=O)[O-])cc1", "activity, negative = inhibition": "inactive: 3.14%"}, {"compound": "Cc1c(Cl)cccc1NC(=S)NCC1COc2ccccc2O1", "note": "(stereo not given)", "Potency": "inconclusive: 22.4 µM [inhibitor, single point]"}, {"compound": "Cc1ccc(S(=O)(=O)N2C[C@H]3C(=O)C[C@@H](c4ccccc4)N(S(C)(=O)=O)[C@H]3C[C@H]2c2ccccc2)cc1", "Potency": "inconclusive: 8.91 µM [inhibitor, partial curve]"}, {"compound": "Cc1ccc(NC(=O)CCCCCN2C(=O)[C@@H]3Cc4ccccc4CN3C2=O)c(Cl)c1", "Potency": "inconclusive: 35.5 µM [inhibitor, single point]"}, {"compound": "CSc1ccc(CN2CCC2(C)C(=O)NCc2cccc(C(F)(F)F)c2)cc1", "note": "(stereo not given)", "Potency": "inconclusive: 10 µM [inhibitor, single point]"}, {"compound": "COc1ccccc1-n1cn[nH]c1=S", "Potency": "inconclusive: 17.8 µM [inhibitor, partial curve, poor fit]"}, {"compound": "O=c1c(Cl)c(Cl)cnn1Cc1ccccc1Cl", "Potency": "inconclusive: 28.2 µM [inhibitor, single point]"}, {"compound": "CN(C)N=Nc1nc2c(c(=O)n(C)c(=O)n2C)n1CC1CO1", "note": "(stereo not given)", "Potency": "inconclusive: 35.5 µM [inhibitor, partial curve, poor fit]"}, {"compound": "CC(=O)NCC(=O)OCC(=O)c1ccc(C)c(C)c1", "activity, negative = inhibition": "inactive: 0.829%"}, {"compound": "CC(=O)Nc1c(-c2ccccc2)nc2ccc(Cl)cn12", "activity, negative = inhibition": "inactive: 2.27%"}]}]}
